Test results from PubChem BioAssay AID1159614 (National Center for Advancing Translational Sciences (NCATS), 2016).
Among all 45,000 compounds or so, about 65 (0.1%) were called active. Calls follow the shape of the dose curve; as a rule, active = well fitted activation curve with a large enough effect; inconclusive = small, poorly fitted or top-dose-only effect; inactive = no such curve, though single readings can be large or run the other way. The list shows a part of the results.

Target: Galactocerebrosidase (Homo sapiens) (UniProt P54803)
Sequence of UniProt P54803 (P54803 whole entry, looked up): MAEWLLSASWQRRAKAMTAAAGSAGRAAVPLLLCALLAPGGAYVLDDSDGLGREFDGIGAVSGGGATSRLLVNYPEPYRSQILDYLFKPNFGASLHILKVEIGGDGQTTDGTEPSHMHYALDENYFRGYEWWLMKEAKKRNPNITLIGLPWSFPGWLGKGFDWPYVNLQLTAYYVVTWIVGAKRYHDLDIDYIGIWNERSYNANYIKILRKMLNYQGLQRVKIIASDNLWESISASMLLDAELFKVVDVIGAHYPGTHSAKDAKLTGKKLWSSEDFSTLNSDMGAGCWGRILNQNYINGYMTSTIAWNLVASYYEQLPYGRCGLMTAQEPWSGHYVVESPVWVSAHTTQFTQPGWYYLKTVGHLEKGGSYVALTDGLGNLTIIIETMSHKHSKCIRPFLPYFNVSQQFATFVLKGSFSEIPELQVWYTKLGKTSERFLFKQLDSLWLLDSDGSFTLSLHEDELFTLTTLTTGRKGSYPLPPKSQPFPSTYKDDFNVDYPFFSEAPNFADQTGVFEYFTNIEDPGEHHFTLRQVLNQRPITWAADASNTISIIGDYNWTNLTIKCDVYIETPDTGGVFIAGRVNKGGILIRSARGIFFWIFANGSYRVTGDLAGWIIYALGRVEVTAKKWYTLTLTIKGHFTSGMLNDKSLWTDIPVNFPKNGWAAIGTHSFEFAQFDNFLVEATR
Assay: A Novel Cell-Based Assay to Identify Small Molecules for B -Galactocerebrosidase; also: 0% is about no effect; nearly all actives have a fitted effect of over 65% in size
Details: 145M-Twi-hGALC-G270D cells (Twitcher mouse brain line with human GALC G270D), HMU-beta-Gal fluorescence, 48 h; series mostly up to 57.5 µM; activation: at the top concentration
Method in brief: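 Fluorogenic HMU-b-Gal hydrolysis (0.1 mM final, pH 5.2 citrate-phosphate with 1 mg/mL sodium taurocholate; carbonate stop buffer) measures mutant GALC activity after compound treatment of live 145M-Twi Twitcher brain cells stably carrying human GALC-G270D, with wild-type GALC line alongside; activation sought.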

activation, inactive:
CCc1ccc(NC(=O)CSc2nc(-c3ccccc3Cl)nc3c2Cc2c(CO)cnc(C)c2O3)cc1 -11.4%, CC(C)NC(=O)c1ccc(-n2c(-c3ccccc3)cc3c2CCCC3)cc1 -25.5%, CC(C)Cn1c(=O)c2sccc2n2c(CCCC(=O)NCCc3ccc(Cl)cc3)nnc12 -10.3%, O=C(Nc1ccc(Br)cc1)c1ccc(F)c(S(=O)(=O)N2CCCc3ccccc32)c1 6.83%, O=C(COc1ccc(Br)cc1Cl)Nc1ncn[nH]1 -5.75%, CCOC(=O)c1ccc(CN(Cc2ccc(Cl)cc2Cl)S(=O)(=O)c2ccc(F)c(C)c2)cc1 -21.5%, CCc1ccc2nc(N(Cc3cccnc3)C(C)=O)sc2c1 -37%, CCCCn1c(=O)c2oc3ccccc3c2n(Cc2cccc(F)c2)c1=O -0.143%, CCC(C)Cn1c(/C=C/c2ccccc2)nc2ccccc21 (stereo unspecified) -16.2%, Cc1ccc(S(=O)(=O)C(CNC(=O)c2ccc(F)c(F)c2)c2ccco2)cc1 (stereo unspecified) -13.4%, CCS(=O)(=O)c1ccc(O)c(Nc2cc(C)nc(SC)n2)c1 -9.44%, CCC(=O)C1=C(c2ccc(Cl)cc2)N(C(=O)CC)n2c(C)nnc2S1 -38.4%, O=C(CSc1oc(-c2ccco2)nc1S(=O)(=O)c1ccc(Br)cc1)c1ccccc1 -27.4%, Cc1ccc(NC2=C(CC(=O)O)C(c3ccc(F)cc3)N(c3ccc(C)cc3)C2=O)cc1 (stereo unspecified) -10.5%, O=C(CCCN1C(=O)c2cccnc2Oc2ccc(Cl)cc21)NCc1ccccc1F -4.77%, CC1CCN(S(=O)(=O)c2nnc(NC(=O)c3ccc(C(C)C)cc3)s2)CC1 -9.03%, CC(C)c1cnc2c(c1SCC(=O)Nc1ccc(OC(F)(F)F)cc1)c(=O)n(C)c(=O)n2C -14.8%, CCN(CC)CCOC(=O)c1ccc(NC(=O)c2nn(C)c3c2COc2ccccc2-3)cc1 -4.47%, CCOC(=O)c1cccc(NC(=O)c2cc3c(=O)n(C)c4ccccc4c3n2C)c1 -0.302%, CCc1nnc2c(Nc3cccc(F)c3)nc3ccc(C(=O)c4ccccc4)cc3n12 -11.7%, Cc1cc(C)cc(NC(=O)c2ccc3c(c2)nnn3C2CCCC2)c1 17.6%, Cc1ccc(CNC(=O)CCN2C(=O)COc3ccc(C)cc32)cc1 -5.01%, Cc1ccsc1CN(C(=O)c1oc2ccc(F)cc2c1C)C1CCS(=O)(=O)C1 (stereo unspecified) -21%, CCOc1ccccc1NC(=O)N(Cc1ccc(F)cc1)C1CCN(CC)CC1 -20.7%, CCc1ccc(N2CCn3c2nc2c3c(=O)n(C/C=C/c3ccccc3)c(=O)n2C)cc1 -21.3%, Cc1ccc(CNC(=O)CC(C)CC2=NS(=O)(=O)c3ccccc3N2)cc1 (stereo unspecified) -10.9%, COC(=O)C1=C(C)NC(C)=C(C(=O)OCCN(C)Cc2ccccc2)C1c1cccc([N+](=O)[O-])c1 (stereo unspecified) -12.9%, COc1ccc(NC(=O)c2c(NCc3ccc(N(C)C)cc3)sc3c2CCC3)cc1 -14.2%, Cc1ccc(C)c(-n2c3nc(=O)[nH]c(=O)c-3cc3c(C)nn(-c4ccccc4)c32)c1 -2.74%, CCc1ccc(NC(=O)c2ccc(F)c(S(=O)(=O)N3CCC4(CC3)OCCO4)c2)cc1 -3.22%, COc1cccc(CNS(=O)(=O)c2cc3[nH]c(=O)c(=O)[nH]c3cc2C)c1 -6.71%, Cc1ccc(Nc2ncc(C(=O)N3CCN(c4ccc(F)cc4)CC3)c3ccccc23)cc1Cl 2.45%, Cc1ccc(NC(=O)C2CCCN2S(=O)(=O)c2cccc3nsnc23)c(C)c1 (stereo unspecified) -11.3%, CCOc1ccc(-c2nonc2NC(=O)c2oc3cc(C)c(C)cc3c2C)cc1OCC -22.2%, Cc1ccccc1Cn1c2ccccc2c2cnn(CC(=O)NC(C)CCc3ccccc3)c(=O)c21 (stereo unspecified) -11.2%, CCc1ccc2oc(C(=O)Nc3c(C)n(C)n(-c4ccccc4)c3=O)cc(=O)c2c1 -6.42%, CCOC(=O)c1ccc(N2C(=O)c3n[nH]c(C)c3C2c2ccccc2OC)cc1 (stereo unspecified) -11.8%, N#Cc1ccc(C(=O)NCc2ccc3c(c2)CCN3C(=O)c2ccc(F)cc2)cc1 -3.91%, Cc1cccc(Cn2nc(C)n3c(cc4cc(C)ccc43)c2=O)c1 -21.9%, Cc1cccc(CCNc2ncnc3onc(-c4ccc(Cl)cc4)c23)c1 3.87%, COC(=O)c1ccc(NC(=O)CN(CCc2ccccc2)S(=O)(=O)c2ccc(OC)cc2)cc1 -18.2%, CCn1c(C(=O)NCc2ccc(OC(C)C)cc2)cc2oc3ccccc3c21 4.05%, CCOc1ccc(-n2c(SCC(=O)N3CCC(C)CC3)nc3c([nH]c4ccccc43)c2=O)cc1 -7.28%, Cc1ccc(C)c(N2CCN(c3ccc4cc(S(=O)(=O)N5CCC(C)CC5)ccc4n3)CC2)c1 -21.1%, Cc1ccc(C)c(N2CCN(C(=O)c3cc(C)nc4c3c(C)nn4-c3cccc(F)c3)CC2)c1 -8.3%, Cc1ccccc1OCC(=O)Nc1sc2c(c1C(=O)OC(C)C)CCCC2 -12.1%, CCOc1ccc(C(=O)NCCc2sc(-c3ccc(OC)c(OC)c3)nc2C)cc1 -16.2%, COc1ccc2c(CNCc3cccs3)c(C(=O)O)n(Cc3ccc(C)cc3)c2c1 -0.652%, Cc1nn(CC(=O)O)c(=O)c2cc3cc(F)ccc3n12 -9.74%, COC(=O)c1ccc(C2c3c(oc4ccccc4c3=O)C(=O)N2c2nc(C)c(C(=O)OC)s2)cc1 (stereo unspecified) -5.79%, O=C(Nc1cc(Cl)cc(Cl)c1)c1ccc2c(c1)N(Cc1cccc(Cl)c1)C(=O)c1ccccc1S2=O (stereo unspecified) -3.84%, COc1ccccc1NC(=O)c1cc(S(=O)(=O)N2CCN(c3ccccc3Cl)CC2)ccc1F -9.39%, Cc1oc(-c2cccc(Cl)c2)nc1CS(=O)(=O)CC(=O)NCc1ccccc1Cl -17.9%, CCCOc1ccc(C(=O)Nc2cc3c(cc2N2CCOCC2)n(C)c(=O)n3C)cc1 -15.5%, Cc1cccc(-n2c(=O)c3c(c4cc(C)ccc4n3C)n(CC(=O)NCC3CCCO3)c2=O)c1 (stereo unspecified) -5.13%, CCCCCCCCCCCCOCCO -15.4%, Cc1ccc2c(c1)c(=O)c1ccccc1n2CCCC(=O)Nc1cc(Cl)ccc1C -9.8%, Cc1ccc(NC(=O)c2cnc(N3CCCCC3)c3ccccc23)c(C)c1 -14.1%, COCCCNC(=O)C1CCN(C(=O)c2cnn(-c3ccccc3)c2-n2cccc2)CC1 -12.9%, CCCN1CCN(C(=O)Cn2c(-c3cccs3)cc3ccccc32)CC1 -8.1%, COC(=O)c1c(Oc2ccc(OC)cc2)nnc(-c2ccccc2)c1-c1ccccc1 0.524%
